# This is one part of the list. Sequences were assembled here from the parent chain. Inactive controls read about 0.05.
# B1: TEV protease; numbered along this chain (parent)
# chain: MGESLFKGPRDYNPISSSICHLTNESDGHTTSLYGIGFGPFIITNKHLFRRNNGTLVVQSLHGVFKVKDTTTLQQHLVDGRDMIIIRMPKDFPPFPQKLKFREPQREERICLVTTNFQTKSMSSMVSDTSCTFPSGDGIFWKHWIQTKDGQCGSPLVSTRDGFIVGIHSASNFTNTNNYFTSVPKNFMELLTNQEAQQWVSGWRLNADSVLWGGHKVFMVKPEEPFQPVKEATQL
# Variants of: B1
# Test: raw area under fraction-flipped curve 0-4 h after induction (AUC4h, not background-subtracted), DNA-recorder readout of cleavage of the substrate (dimensionless); higher = more cleavage of the substrate by the protease variant
# Conditions: temperature: 34 °C; time window: 0-4 h after rhamnose induction
# 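Also: Bxb1 expression induced with 0.2% (w/v) L-rhamnose at OD600 near 0.5, cultures sampled hourly, flipped fraction per protease–substrate barcode pair counted by paired-end Illumina sequencing.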
Variant,area with substrate ECLYFQS,area with substrate EELYFQS,area with substrate EFLYFQS,area with substrate EGLYFQS,area with substrate EKLYFQS,area with substrate EPLYFQS,area with substrate ERLYFQS,area with substrate ESLYFQS,area with substrate EVLYFQS,area with substrate EDLYFQS,area with substrate ELLYFQS,area with substrate EYLYFQS,area with substrate EILYFQS,area with substrate EQLYFQS,area with substrate ETLYFQS,area with substrate EHLYFQS,area with substrate EMLYFQS,area with substrate EWLYFQS
MGESLFKGPRDYNPISSSICHLTNESDGHTTSLYGIGFGPFIITNKHLFRRNNGTLVVQSLHGVFKVKDTTTLQQHLVDGRDMIIIRMPKDFPPFPQKLKFREPQREERICLVTTNFQTKSMSSMVWDTSCTFPSGDGIFWKHWIQTKDGQCGSPLVSTRDGFIVGIHSASNFTNTNNYFTSVPKNFMELLTNQEAQQWVSGWRLNADSVLWGGHKVFMVKPEEPFQPVKEATQL [S127W],0.11,0.141,0.106,0.0864,0.141,0.127,0.151,0.107,0.0944,,,,,,,,,
MGESLFKGPRDYNPISSSICHLTNESDGHTTSLYGIGFGPFIITNKHLFRRNNGTLVVQSLHGVFKVKDTTTLQQHLVDGRDMIIIRMPKDFPPFPQKLKFREPQREERICLVTTNFQTKSMSSMVSDGSCTFPSGDGIFWKHWIQTKDGQCGSPLVSTRDGFIVGIHSASNFTNTNNYFTSVPKNFMELLTNQEAQQWVSGWRLNADSVLWGGHKVFMVKPEEPFQPVKEATQL [T129G],0.108,,,,0.0917,,0.0875,,0.0837,0.113,0.0994,0.0835,,,,,,
MGESLFKGPRDYNPISSSICHLTNESDGHTTSLYGIGFGPFIITNKHLFRRNNGTLVVQSLHGVFKVKDTTTLQQHLVDGRDMIIIRMPKDFPPFPQKLKFREPQREERICLVTTNFQTKSMSSMVSDTHCTFPSGDGIFWKHWIQTKDGQCGSPLVSTRDGFIVGIHSASNFTNTNNYFTSVPKNFMELLTNQEAQQWVSGWRLNADSVLWGGHKVFMVKPEEPFQPVKEATQL [S130H],0.0842,0.121,,,0.102,0.107,0.0884,0.109,0.129,,0.0546,0.126,0.0891,0.0665,0.0894,,,
MGESLFKGPRDYNPISSSICHLTNESDGHTTSLYGIGFGPFIITNKHLFRRNNGTLVVQSLHGVFKVKDTTTLQQHLVDGRDMIIIRMPKDFPPFPQKLKFREPQREERICLVTTNFQTKSMSSMVSDTSCTIPSGDGIFWKHWIQTKDGQCGSPLVSTRDGFIVGIHSASNFTNTNNYFTSVPKNFMELLTNQEAQQWVSGWRLNADSVLWGGHKVFMVKPEEPFQPVKEATQL [F133I],0.128,0.163,,0.103,,0.133,,,,,,,0.0862,,,,,
MGESLFKGPRDYNPISSSICHLTNESDGHTTSLYGIGFGPFIITNKHLFRRNNGTLVVQSLHGVFKVKDTTTLQQHLVDGRDMIIIRMPKDFPPFPQKLKFREPQREERICLVTTNFQTKSMSSMVSDTSCTFVSGDGIFWKHWIQTKDGQCGSPLVSTRDGFIVGIHSASNFTNTNNYFTSVPKNFMELLTNQEAQQWVSGWRLNADSVLWGGHKVFMVKPEEPFQPVKEATQL [P134V],0.121,0.107,0.0913,0.0728,,0.091,0.0436,0.0651,,0.101,0.0856,,0.0649,0.0925,,0.0626,0.107,0.0818
MGESLFKGPRDYNPISSSICHLTNESDGHTTSLYGIGFGPFIITNKHLFRRNNGTLVVQSLHGVFKVKDTTTLQQHLVDGRDMIIIRMPKDFPPFPQKLKFREPQREERICLVTTNFQTKSMSSMVSDTSCTFPCGDGIFWKHWIQTKDGQCGSPLVSTRDGFIVGIHSASNFTNTNNYFTSVPKNFMELLTNQEAQQWVSGWRLNADSVLWGGHKVFMVKPEEPFQPVKEATQL [S135C],0.0932,0.0846,0.0733,0.0477,0.081,,0.0499,0.0737,,0.0961,0.0846,0.0954,0.0541,0.0858,,0.0663,0.0859,0.0617
MGESLFKGPRDYNPISSSICHLTNESDGHTTSLYGIGFGPFIITNKHLFRRNNGTLVVQSLHGVFKVKDTTTLQQHLVDGRDMIIIRMPKDFPPFPQKLKFREPQREERICLVTTNFQTKSMSSMVSDTSCTFPSGDGINWKHWIQTKDGQCGSPLVSTRDGFIVGIHSASNFTNTNNYFTSVPKNFMELLTNQEAQQWVSGWRLNADSVLWGGHKVFMVKPEEPFQPVKEATQL [F140N],0.0619,0.0561,0.0677,0.0651,0.07,,0.0786,0.0628,0.0603,0.0543,0.0662,0.0541,0.0517,0.0564,0.0519,,0.0452,
MGESLFKGPRDYNPISSSICHLTNESDGHTTSLYGIGFGPFIITNKHLFRRNNGTLVVQSLHGVFKVKDTTTLQQHLVDGRDMIIIRMPKDFPPFPQKLKFREPQREERICLVTTNFQTKSMSSMVSDTSCTFPSGDGIQWKHWIQTKDGQCGSPLVSTRDGFIVGIHSASNFTNTNNYFTSVPKNFMELLTNQEAQQWVSGWRLNADSVLWGGHKVFMVKPEEPFQPVKEATQL [F140Q],0.0611,,,,0.0755,,,0.0623,,0.0584,0.065,,,,,,,
MGESLFKGPRDYNPISSSICHLTNESDGHTTSLYGIGFGPFIITNKHLFRRNNGTLVVQSLHGVFKVKDTTTLQQHLVDGRDMIIIRMPKDFPPFPQKLKFREPQREERICLVTTNFQTKSMSSMVSDTSCTFPSGDGIYWKHWIQTKDGQCGSPLVSTRDGFIVGIHSASNFTNTNNYFTSVPKNFMELLTNQEAQQWVSGWRLNADSVLWGGHKVFMVKPEEPFQPVKEATQL [F140Y],0.0893,,,,0.0902,0.115,,,0.0623,0.116,,,0.0749,0.0925,,,0.104,0.0977
MGESLFKGPRDYNPISSSICHLTNESDGHTTSLYGIGFGPFIITNKHLFRRNNGTLVVQSLHGVFKVKDTTTLQQHLVDGRDMIIIRMPKDFPPFPQKLKFREPQREERICLVTTNFQTKSMSSMVSDTSCTFPSGDGIFEKHWIQTKDGQCGSPLVSTRDGFIVGIHSASNFTNTNNYFTSVPKNFMELLTNQEAQQWVSGWRLNADSVLWGGHKVFMVKPEEPFQPVKEATQL [W141E],0.0598,,,0.0598,,,,0.0528,0.0542,0.0684,0.0675,,,0.0441,,,,
